Data on 85 compounds can be found in ChEMBL document CHEMBL4888484, “Replenishing the malaria drug discovery pipeline: Screening and hit evaluation of the MMV Hit Generation Library 1 (HGL1) against asexual blood stage Plasmodium falciparum ,using a nano luciferase reporter read-out” (2022).

The structures appear in SMILES notation. Among all 150,000 compounds or so, about 540 (0.36%) showed an effect of 50% or more. The list shows a part of the results.

The assay deals with Plasmodium falciparum. Put plainly: Primary screen in NF54 nanoGlo assay, in single point, at 2uM, 72h; a lower Z score goes with more inhibition. Format: functional, Erythrocyte. To be noted: timepoint 72 hour.
As for `CCN(Cc1noc(C2CCC2)n1)C(=O)N[C@H](C)c1cccc(OC)c1`, the “% Inhibition” value worked out at 2% and the Z score is reported as -0.25.
Taken in the same sequence, the figures for `c1ccc(-c2ncn(CCc3ccncc3)c2-c2ccccc2)cc1` were 17% and -2.1.
Taken in the same sequence, the figures for `O=C(CCc1c(Cl)cccc1Cl)NCCOCCN1C(=O)CCC1=O` were -7% and 1.12.
Taken in the same sequence, the figures for `Cc1nnc(CN2CCC3(CC2)CN(C[C@H](C)c2ccccc2)C(=O)O3)o1` were -8% and 1.04.
Turning to `O=C(c1nc(C2CC2)n(-c2ccccc2)n1)N1CCCCCCC1`, the “% Inhibition” value is on record as -1% and the Z score was found to be 0.13.
Taken in the same sequence, the figures for `O=S(=O)(C[C@H]1CCCC1(F)F)NC12CCC(CC1)C2` were -1% and 0.15.
The like results for `CN(C)c1cncc(-c2cc(O)cc(CC[C@H]3CCCCN3)c2)n1` were, in that order, -2% and 0.33.
Consider `CCCn1c(=O)cc(-c2ccccc2)c2ccc(OCC(=O)Nc3ccccc3F)cc21`, for which the “% Inhibition” value is 10% and the Z score is reported as -1.49.
The like results for `[O-][n+]1ccc(OCc2ccccc2)cc1` were, in that order, -14% and 1.59.
Taken in the same sequence, the figures for `CCCNC(=O)CNC(=O)NCCC1CCCC1` were 3% and -0.34.
Taken in the same sequence, the figures for `Cc1cc(C(=O)NCc2cc(-c3ccncc3)n(C3CCCC3)n2)no1` were -13% and 1.51.
`Cc1cccc(S(=O)(=O)CCCN2CCC(c3ncco3)CC2)c1`: the “% Inhibition” value is reported as -19% and the Z score was 2.57.
Taken in the same sequence, the figures for `Cc1nc2c(c(-c3ccc(C(N)=O)c(Cl)c3)n1)CCC2` were -16% and 2.23.
Taken in the same sequence, the figures for `CCc1cnc(NCc2cc3c(nc2OC)CN(C2CCCC2)C3=O)nc1` were 2% and -0.23.
Taken in the same sequence, the figures for `COc1ccc(OC)c(CNS(=O)(=O)c2ccccc2-c2nc(-c3ccc(C)cc3)no2)c1` were -8% and 1.01.
For the compound `COC(=O)c1c(NC(=O)[C@@H]2CCCO2)c2cc(NC3CCN(C(C)=O)CC3)cnc2n1CCc1ccccc1`, the “% Inhibition” value was -2% and the Z score was determined as 0.3.
The like results for `COCCCCNc1cc(F)c(F)cc1F` were, in that order, -1% and 0.2.
In the case of `CCN(CC(F)(F)F)C(=O)NCCc1cn[nH]c1`, the “% Inhibition” value is -4% and the Z score turned out to be 0.76.
The like results for `COc1cccc(-c2ccc3nc(N4CCC(C(=O)O)CC4)sc3n2)c1` were, in that order, 2% and -0.15.
`CCC1CC(C(=O)Nc2ncc(Cl)s2)CCO1` (stereo not given): the “% Inhibition” value was -2% and the Z score came to 0.21.
Taken in the same sequence, the figures for `COCCN(Cc1c(-c2ccccc2)nn(C)c1Oc1ccc(Cl)cc1)C(=O)c1ccc(F)cc1` were -17% and 1.52.
Taken in the same sequence, the figures for `Cc1cc(C)nc(CCNC(=O)C[C@H]2C(=O)NCCN2C/C=C/c2ccccc2)n1` were -12% and 1.74.
Take `O=C(CCCNS(=O)(=O)c1ccc(Cl)cc1)NCc1ccccc1`: the “% Inhibition” value came to 0% and the Z score is -0.02.
Taken in the same sequence, the figures for `CCC1(CNC(=O)NCCCNC(C)=O)CCCC1` were -9% and 0.74.
Turning to `COc1ccccc1CCC(=O)N1CC[C@@]2(CCCN(CC3CC3)C2=O)C1`, the “% Inhibition” value was -7% and the Z score is recorded as 1.29.
In the case of `Cc1ccc2c(c1)[C@@H](NCc1ccc(C3OCCO3)cc1)CC2`, the “% Inhibition” value is -24% and the Z score was 2.19.
Taken in the same sequence, the figures for `Cc1cc(C)nc(-n2[nH]c(C)c(Cc3ccc(C(C)(C)C)cc3)c2=O)n1` were 1% and -0.16.
The like results for `CCOc1ncccc1C(=O)Nc1ccc(S(=O)(=O)N2CCOCC2)cc1` were, in that order, -13% and 2.04.
Regarding `O=C(N[C@H]1CC[C@@H](C(=O)Nc2cc(F)ccc2F)C1)c1ccco1`, the “% Inhibition” value is recorded as -6% and the Z score worked out at 1.25.
The like results for `CC(=O)[C@@H]1CCCCN1C(=O)OC(C)(C)C` were, in that order, -19% and 1.73.
Taken in the same sequence, the figures for `O=C(Nc1cccc(C(F)(F)F)c1)N1CCC(Oc2cnc3ccccc3n2)CC1` were -19% and 3.54.
Taken in the same sequence, the figures for `Cc1ccc(CN2CCC3(CC2)C(=O)NCCN3C)n1-c1cccnc1` were 0% and -0.01.
On to `O=S(=O)(Nc1nnc(C2(c3ccccc3)CC2)s1)c1cccs1`, for which the “% Inhibition” value is reported as -6% and the Z score is 0.83.
For the compound `CCN1CCN(C(C)(C)CNC(=O)N[C@@H](C)[C@H](O)c2ccccc2)CC1`, the “% Inhibition” value is reported as -21% and the Z score came to 2.22.
For the compound `Cc1ccnc(N2CCC[C@H](n3cc(C(=O)NCCO)nn3)C2)n1`, the “% Inhibition” value is -5% and the Z score is 0.82.
As for `Cc1cc(C)n([C@@H](C)CC(=O)Nc2cc(C)on2)n1`, the “% Inhibition” value is on record as -16% and the Z score was 1.59.
The like results for `O=C(COC[C@H]1CCCO1)N1CCCc2cc(F)c(F)c(F)c21` were, in that order, -5% and 0.85.
The like results for `Cc1ccc(OCCNS(=O)(=O)N2CCC[C@H](C)C2)cc1` were, in that order, 23% and -2.7.
Taken in the same sequence, the figures for `CCOc1ccccc1NC(=O)[C@H]1CCC(=O)NC1` were 3% and -0.37.
Regarding `O=C(NCC1CC1)[C@H](C1CCCC1)N1CCN(C(=O)CCc2ccccc2)CC1`, the “% Inhibition” value is given as -3% and the Z score amounted to 0.36.
Take `COc1cccc(C2NC(C)(C(=O)O)C3C(=O)N(Cc4ccccc4)C(=O)C23)c1O` (stereo not given): the “% Inhibition” value is given as -15% and the Z score was 1.98.
The like results for `CCOc1ccc(-n2ccn3c(C[C@@H](C)CC(=O)NCc4ccc(F)cc4)nnc3c2=O)cc1` were, in that order, -10% and 1.52.
The like results for `Cc1cccc(C(=O)N2CCC[C@H]2c2ccc3c(c2)OCCCO3)n1` were, in that order, -7% and 1.3.
The like results for `Cc1cc(C)n(CC(=O)Nc2nnc(C3CC3)s2)n1` were, in that order, -15% and 3.03.
Take `CN(C)c1cc(O[C@H]2CCN(C(=O)c3cnn4cccnc34)C2)ncn1`: the “% Inhibition” value is given as -3% and the Z score worked out at 0.37.
Consider `Cc1cc(-n2nnc(C(=O)Nc3cc(F)cc(F)c3)c2-c2cccnc2)ccc1F`, for which the “% Inhibition” value is 3% and the Z score is given as -0.23.
The like results for `O=C1NC2(CCN(Cc3ccccn3)CC2)Nc2ncccc21` were, in that order, -9% and 1.07.
The like results for `O=C(c1ccc[n+]([O-])c1)N1CCOc2ccc(C3=CCCCC3)cc2C1` were, in that order, -3% and 0.44.
For the compound `COc1ncc([C@@H]2C[C@H](NC(C)=O)C[C@H](CCc3ccccc3)O2)cn1`, the “% Inhibition” value stood at 3% and the Z score is reported as -0.55.
The like results for `COc1ccc(NC(N)=NCc2ccco2)cc1` were, in that order, -12% and 0.98.
The like results for `Cc1nc(-c2ccccc2)sc1-c1cc(C(=O)O)n[nH]1` were, in that order, 31% and -3.99.
The like results for `CC(C)[C@H]1CC[C@H](C(=O)NC2(CO)CCOCC2)CC1` were, in that order, -13% and 1.68.
Turning to `Cc1ccc(CNC(=O)N2CCc3c(c(-c4nc(C5CC5)no4)nn3C)C2)cc1`, the “% Inhibition” value is on record as -8% and the Z score is reported as 1.31.
Taken in the same sequence, the figures for `Cc1ccsc1[C@@H](O)CNC(=O)c1cccs1` were -12% and 2.04.
The like results for `CCOc1cncc(N2CCOC3CCCCC32)n1` (stereo not given) were, in that order, 2% and -0.22.
The like results for `O=C(Cc1n[nH]c(-c2cccnc2)n1)NCCc1cccs1` were, in that order, -4% and 0.52.
For the compound `CCOc1cc(C=C(C)c2cnccn2)ccc1O`, the “% Inhibition” value was -4% and the Z score came out at 0.44.
The like results for `O=C(Cc1ccc(O)cc1)N1C[C@H]2CCCC[C@@]2(C(=O)O)C1` were, in that order, 18% and -2.31.
With `O=S(=O)(Cc1ccc(C(F)F)cc1)N1CCC[C@@H]1c1nc[nH]n1`, the “% Inhibition” value was -2% and the Z score came out at 0.4.
The like results for `CC1(NC(=O)c2cncnc2)CCOC1C1CC1` (stereo not given) were, in that order, -9% and 1.17.
Regarding `CCn1ncnc1CN1C[C@@H]2NC(=O)c3ccc(Cl)c(c3)OCCCn3cc(nn3)CO[C@H]2C1`, the “% Inhibition” value was -13% and the Z score is 2.49.
Taken in the same sequence, the figures for `COCCOCC1CCN(C(=O)Nc2ccc3c(c2)OCO3)CC1` were -18% and 2.63.
The like results for `CCO[C@@H](C)c1nccn1Cc1ccnc(N(C)C)c1` were, in that order, -4% and 0.41.
In the case of `COCC(=O)N1CCc2cc(NC(=O)c3c(-c4ccccn4)noc3C)ccc21`, the “% Inhibition” value is listed as -12% and the Z score came out at 1.83.
As for `CO[C@@]12CC[C@@H](O)C[C@@H]1N(C(=O)c1cccc3[nH]c(C)nc13)CC2`, the “% Inhibition” value worked out at 6% and the Z score was -1.06.
For `COc1cc([C@H]2CC(=O)Nc3[nH]nc(C)c32)ccc1OCc1ccccc1`, the “% Inhibition” value is recorded as 5% and the Z score is listed as -0.93.
The like results for `CCN(CC(F)(F)F)C(=O)Nc1cccc(C(N)=O)c1C` were, in that order, -25% and 3.15.
With `CCCN1CCN(C(=O)c2ccc3c(c2)nc2n3CCN(Cc3ccccc3)C2=O)CC1`, the “% Inhibition” value is -10% and the Z score was 1.3.
The like results for `O=C(c1ncncc1Cl)N1CCCC2CCCC21` (stereo not given) were, in that order, 33% and -3.7.
On to `C[C@H]1c2ccsc2CCN1C(=O)c1ccc(Cl)c(N2CCCC2=O)c1`, for which the “% Inhibition” value is -4% and the Z score amounted to 0.51.
The like results for `Cc1ccc(S(=O)(=O)NC2CC2)cc1C(=O)N1CCC(C(=O)N2CCC[C@H](C)C2)CC1` were, in that order, 2% and -0.29.
Taken in the same sequence, the figures for `O=C1CC[C@H](C(=O)Nc2cccc(F)c2)C1` were 2% and -0.23.
`Cc1ocnc1C(=O)Nc1ccc(F)cn1`: the “% Inhibition” value was -5% and the Z score is 1.08.
The like results for `CN(C)[C@H]1[C@@H]2CC[C@H]1CN(C(=O)c1cc(C(F)(F)F)ccc1Cl)C2` were, in that order, -4% and 0.78.
Taken in the same sequence, the figures for `CCN(CC)c1ccc(CN(CCOC)C(C)=O)c(OS(=O)(=O)c2ccc(OC)cc2)c1` were -9% and 1.11.
The like results for `O=S(=O)(c1cccnc1N1CC[C@@]2(CCCOC2)C1)N1CCCCC1` were, in that order, 0% and 0.01.
Regarding `CCC(C)C(C)(O)CNc1ncccc1C(=O)O` (stereo not given), the “% Inhibition” value is listed as -2% and the Z score was 0.25.
As to `CC1CN(C(=O)Cn2ccnc2C(O)c2ccc(F)cc2)CC(C)O1` (stereo not given), the “% Inhibition” value is -4% and the Z score was 0.73.
`CCCC1(CNC(=O)CCc2cn[nH]c2)CCC1`: the “% Inhibition” value was -7% and the Z score stood at 1.31.
The like results for `CCN(CC)C(=O)C[C@@H](C(F)F)N1CCOCC1` were, in that order, -7% and 1.07.
Taken in the same sequence, the figures for `CC(C)(C)N(CC(=O)N1CCn2cccc2[C@H]1c1ccccc1Cl)C(=O)c1ccccc1Cl` were 0% and -0.03.
The like results for `CCOC[C@H]1CCCN1C(=O)Cc1c(C)[nH]c(=O)[nH]c1=O` were, in that order, 7% and -0.94.
As for `CC(C)CC(=O)Nc1ccc(Cl)cn1`, the “% Inhibition” value is 2% and the Z score is reported as -0.4.
Taken in the same sequence, the figures for `O=C(c1cccnc1-c1ccncc1)N1CCCC1` were -18% and 1.95.
On to `Cc1nc(-c2cccs2)sc1C(=O)N1CCOC2CCCC21` (stereo not given), for which the “% Inhibition” value was determined as 0% and the Z score is 0.05.

By % Inhibition is commonly meant the relative decrease from the control value, in per cent.
